# Measurements as given in the supplement of paper PMC4723716.
# ± gives the uncertainty stated by the source. Whole data set: some 9,900 compounds, median “viability index relative to DMSO control” near 1, cut for the lowest 2% near 0.85. The list shows a part of the results.
# Tested on: Plasmodium falciparum NF54 stage V gametocytes
# Experiment: viability index relative to DMSO control (fraction); higher = less gametocyte killing
# Settings: 2.5 µM, library set: Broad Institute DOS, incubation time: 72 h
# Summary of the method: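 Stage V gametocytes of P. falciparum NF54 were held in serum-free screening medium at 0.75% gametocytemia and 1.25% hematocrit, 10 µl per well of a 1,536-well plate, and exposed to compound at 2.5 µM for 72 hr at 37°C under low oxygen. A 3 µl mix of 2.5 µM MitoTracker Red CMXRos with 0.13% saponin was then added for one to two hours, after which one field per well was imaged and red particles of 20–70 µm2 were counted. The viability index equals this count divided by the plate mean from wells given solvent alone.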
row,SMILES,viability index
1,N#C[C@H]1[C@@H](c2ccc(-c3cccc(F)c3)cc2)[C@H](CO)N1c1nc(-c2ccccc2)cs1,1.099 ± 0.0076
2,CCCC(=O)Nc1ccc2c(c1)C(=O)N(C)[C@H]1CC[C@@H](CC(=O)NCc3cccc(F)c3)O[C@H]1CO2,1.06 ± 0.028
3,COCC(=O)N1CC(=O)N2[C@H](CO)[C@H](c3ccc(-c4ccccc4F)cc3)[C@@H]2C1,0.992 ± 0.09
4,O=C(CC(F)(F)F)N1C[C@@H]2[C@H](c3ccccc31)[C@@H](CO)N2CC1CCOCC1,1.01 ± 0.13
5,C[C@H]1CN([C@@H](C)CO)C(=O)CCCn2nncc2CO[C@H]1CN(C)S(=O)(=O)c1cn(C)cn1,1.04 ± 0.027
6,C[C@H](CO)N1C[C@H](C)[C@@H](CN(C)S(=O)(=O)c2ccc([N+](=O)[O-])cc2)OCc2ccccc2-c2ccccc2C1=O,0.967 ± 0.051
7,N#C[C@@H]1[C@@H](c2ccccc2)[C@H](CO)N1C(=O)Nc1cccc(F)c1,1.04 ± 0.032
8,COc1ccc(NC(=O)N2CC(=O)N3[C@H](CO)[C@H](c4ccc(Br)cc4)[C@@H]3C2)cc1,0.909 ± 0.019
9,CN(C)CC(=O)N1[C@H](CO)[C@@H](c2ccccc2)C12CN(CC1CCOCC1)C2,1.13 ± 0.051
10,COc1cccc(NC(=O)Nc2ccc3c(c2)C(=O)N(C)C[C@@H](OC)[C@@H](C)CN[C@@H](C)CO3)c1,0.986 ± 0.032
11,Cc1ccccc1-c1ccc([C@H]2[C@H]3CNC[C@@H]2N3Cc2ccccn2)cc1,1.07 ± 0.084
12,O=C(C[C@H]1CC[C@H]2[C@@H](COC[C@H](O)CN2Cc2ccc3c(c2)OCO3)O1)N1CCCCC1,1.03 ± 0.1
13,COCC#Cc1ccc([C@@H]2[C@@H](CO)N3CCCCN(C(=O)NC4CCCC4)C[C@@H]23)cc1,1.01 ± 0.02
14,CCC(=O)N1C[C@H](O)COC[C@@H]2O[C@@H](CC(=O)NC)CC[C@H]21,1.02 ± 0.08
15,COCC(=O)N1CC[C@@]2(CC1)CN(Cc1ccccc1Cl)[C@@H](CO)c1[nH]c3cc(OC)ccc3c21,1.049 ± 0.0075
16,O=C(C[C@@H]1C=C[C@H](NS(=O)(=O)c2ccc(F)cc2)[C@H](CO)O1)N1CCc2ccccc2C1,1.06 ± 0.12
17,Cc1noc(C)c1NC(=O)N(C)C[C@@H]1OCc2cn(nn2)CCCC(=O)N([C@@H](C)CO)C[C@@H]1C,1.02 ± 0.033
18,N#C[C@H]1[C@H](c2ccccc2C2=CCCCC2)[C@H](CO)N1C(=O)c1ccccn1,1.04 ± 0.15
19,COc1cccc(-c2ccc([C@H]3[C@H]4CNC[C@@H]3N4C(=O)Nc3ccc4c(c3)OCO4)cc2)c1,1.1 ± 0.085
20,COc1ccc(S(=O)(=O)N(C)C[C@@H]2Oc3c(NC(=O)c4nc5ccccc5s4)cccc3C(=O)N([C@@H](C)CO)C[C@@H]2C)cc1,1.06 ± 0.12
21,CN1[C@@H]2c3ccc(-c4ccc(F)cc4)c(=O)n3C[C@@H]2[C@@H](CO)[C@@H]1C(=O)NCc1ccccn1,1.042 ± 0.0075
